# Source: the supplement of paper PMC12340641
# Over roughly 1,000 compounds, “relative growth in counter assay (no AraC = 100%, AraC + DMSO = 0%)” has its median near -1.1; the highest 2% begin near 20. The list shows a part of the results.
# Tested on: HEK293FT dCK*-only
# Experiment: relative growth in counter assay (no AraC = 100%, AraC + DMSO = 0%); higher = more growth rescue independent of IKZF1
# Conditions: compound concentration: 5 uM; AraC concentration: 0.3 uM; overnight pretreatment + 4 days AraC
# Procedure: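 Growth recovery screen of the molecular-glue-like (Specs) library. HEK293FT cells expressing a dCK*-IKZF1 fusion (primary) or dCK* alone (counter) were pretreated overnight with compound at 5 uM, then given 0.3 uM AraC for 4 days. Hoechst nuclei were counted by imaging. Primary: normalised to pomalidomide (100%) and DMSO (0%), mean of 2 replicates. Counter: normalised to no-AraC (100%) and AraC+DMSO (0%), single replicate.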
row,SMILES,relative growth in counter assay
1,O=C(COc1ccccc1Cl)Nc1ccc(S(=O)(=O)Nc2ccccn2)cc1,-2.13%
2,CN(C)CC(=O)N1CCC(c2cccc(Nc3ncc(-c4ccccc4)s3)n2)CC1,-7.73%
3,Cc1ccccc1N1C(=O)c2ccc(Oc3ccc(N)cc3)cc2C1=O,12.7%
4,Cc1nc(Nc2cccc(C3CCCN3C(=O)c3ccc(=O)n(C)n3)n2)sc1C (stereo unspecified),-5.62%
5,CN1CCN(CC(=O)N2CCC(c3cccc(Nc4ncc(-c5ccccc5)s4)n3)CC2)CC1,-22.9%
6,CCCCc1cnc(Nc2cccc(C3CCN(C(=O)[C@@H]4CCCCN4)CC3)n2)s1,-13.9%
7,COc1nccnc1NS(=O)(=O)c1ccc(NC(=S)NC(=O)/C=C/c2ccccc2)cc1,-22.1%
8,Cc1cc(C)c(OCC(=O)Nc2ccc(S(=O)(=O)Nc3cc(C)nc(C)n3)cc2)c(C)c1,-1.48%
9,Cc1cnc(Nc2cccc(C3CN(C(=O)c4c(C(C)C)noc4C)CCO3)n2)s1 (stereo unspecified),-6.3%
10,CCCOc1ccc(/C=C/C(=O)Nc2ccc(S(=O)(=O)Nc3cc(C)nc(C)n3)cc2)cc1OC,-6.49%
11,CCOCC(=O)Nc1ccc(S(=O)(=O)Nc2ncccn2)cc1,-2.18%
12,Cc1nc(Nc2cccc(C3CCN(CC(=O)N4CCC(C)CC4)CC3)n2)sc1C,26.6%
13,Cc1cnc(Nc2cccc(C3CN(C(=O)c4ccccc4)CCO3)n2)s1 (stereo unspecified),-9.19%
14,COc1cccc(OC)c1C(=O)N1CCOC(c2cccc(Nc3nc(C)cs3)n2)C1 (stereo unspecified),10.3%
15,CC(=O)Nc1ccc(-c2csc(Nc3ccc(Cl)cn3)n2)cc1,-4.91%
16,O=C(/C=C/c1cccnc1)N1CCC(c2cc3ccccc3c(Nc3nccs3)n2)CC1,-20.5%
17,O=C(C1CCCCC1)N1CCOC(c2cccc(Nc3ncc(Cc4ccccc4F)s3)n2)C1 (stereo unspecified),6.73%
18,CC(=O)Nc1cccc(-c2csc(Nc3cccc(C)n3)n2)c1,5.94%
19,Cc1cnc(Nc2cccc(C3CCN(C(=O)C4CCCCC4)CC3)n2)s1,-18.4%
20,CCOc1ccc(C(=O)Nc2ccc(S(=O)(=O)Nc3nc(C)cc(C)n3)cc2)cc1,8.2%
21,CCOCc1ccc(C(=O)N2CCCC2c2cccc(Nc3nc(C)c(C)s3)n2)cc1 (stereo unspecified),4.74%
22,Nc1cccc(Oc2ccc3c(c2)C(=O)N(c2cccc4ccccc24)C3=O)c1,2.85%
23,Cc1ccc2[nH]nc(C(=O)N3CCOC(c4cccc(Nc5ncc(Cc6ccccc6)s5)n4)C3)c2c1 (stereo unspecified),-22.6%
24,CC(C)C(=O)Nc1ccc(S(=O)(=O)Nc2ncccn2)cc1,1.44%

row,SMILES,relative growth in counter assay
1,COc1ccc(/C=C/C(=O)NC(=S)Nc2ccc(S(=O)(=O)Nc3nc(C)cc(C)n3)cc2)cc1OC,2.77%
2,Cc1cnc(Nc2cccc(C3CN(C(=O)C4CCCC4)CCO3)n2)s1 (stereo unspecified),-17%
3,O=C1CCC(N2C(=O)c3ccc(N4CCN(C5CCC(C(=O)O)CC5)CC4)cc3C2=O)C(=O)N1 (stereo unspecified),-2.56%
4,Cc1c(Cl)cccc1NC(=O)CSc1nnc2c(n1)[nH]c1ccc(F)cc12,14%
5,Cc1cnc(Nc2cccc(C3CN(C(=O)C45CC6CC(CC(C6)C4)C5)CCO3)n2)s1 (stereo unspecified),-1.75%
6,COc1cc(NS(=O)(=O)c2ccc(NC(C)=O)cc2)nc(OC)n1,-2.85%
7,CN(CCCN1CCNCC1)c1cccc2c1C(=O)N(C1CCC(=O)NC1=O)C2=O (stereo unspecified),0.92%
8,CCc1ccccc1OCC(=O)Nc1ccc(S(=O)(=O)Nc2ncccn2)cc1,8.22%
9,CCCOc1ccc(C(=O)Nc2ccc(S(=O)(=O)Nc3ncccn3)cc2)cc1,8.13%
10,Cc1cc(Cl)ccc1OC(C)C(=O)Nc1ccc(S(=O)(=O)Nc2ccccn2)cc1 (stereo unspecified),10.4%
11,Cc1cc(C)c2[nH]c3nc(SCC(=O)Nc4cccc(Cl)c4C)nnc3c2c1,-20.1%
12,O=C(Nc1ccc(S(=O)(=O)Nc2ccccn2)cc1)c1cc2ccccc2o1,-2.82%
13,O=C1CCCC/C1=C/Nc1ccc(S(=O)(=O)Nc2cnc3ccccc3n2)cc1,-1.17%
14,Cc1cnc(Nc2cccc(C3CN(C(=O)Cn4c(C(F)(F)F)nc5ccccc54)CCO3)n2)s1 (stereo unspecified),8.07%
15,COc1ccc(C(=O)Nc2ccc(S(=O)(=O)Nc3ccccn3)cc2)cc1,2.7%
16,Cc1cc(C)nc(NS(=O)(=O)c2ccc(NC(=O)c3ccc(S(=O)(=O)N(C)C)cc3)cc2)n1,-6.06%
17,Cc1cc(NS(=O)(=O)c2ccc(NC(=O)c3cccnc3)cc2)nc(C)n1,4.96%
18,O=C(CC1C=CCC1)N1CCC(c2cccc(Nc3nccs3)n2)CC1 (stereo unspecified),-14.5%
19,Cc1cnc(Nc2cccc(C3CN(C(=O)C4CCCO4)CCO3)n2)s1 (stereo unspecified),-14.9%
20,Cc1ccnc(NS(=O)(=O)c2ccc(N3C(=O)C4CC=CCC4C3=O)cc2)n1 (stereo unspecified),-1.29%
21,CC(=O)Nc1ccc(S(=O)(=O)Nc2nc(C)cc(C)n2)cc1,-0.14%
22,Cc1cc(C)n(CC(=O)N2CCOC(c3cccc(Nc4ncc(C)s4)n3)C2)c(=O)n1 (stereo unspecified),-3.56%
23,COCC(=O)N[C@H]1CCC[C@H]1C(=O)N1CCOC(c2cccc(Nc3ncc(C)s3)n2)C1 (stereo partly specified),-8.62%
24,Cc1cnc(Nc2cccc(C3CCN(C(=O)C4(NC(=O)C(C)(C)C)CCCCC4)CC3)n2)s1,-20.5%

row,SMILES,relative growth in counter assay
1,O=C(COc1cccc(Cl)c1)Nc1ccc(S(=O)(=O)Nc2ncccn2)cc1,-0.5%
2,CC(C)Nc1nc(NC(C)C)nc(NS(=O)(=O)c2ccc(N)cc2)n1,3.97%
3,CCC(=O)Nc1cccc(C(=O)Nc2ccc(S(=O)(=O)Nc3ncccn3)cc2)c1,-3.85%
4,CC(C)(C)c1ccccc1OCC(=O)Nc1ccc(S(=O)(=O)Nc2ncccn2)cc1,-1.93%
5,CCCc1cnc(Nc2cccc(C3CCN(C(=O)C4CCCCC4)CC3)n2)s1,-19.4%
6,CCN1C(=O)c2cccc3c(S(=O)(=O)Nc4ccccn4)ccc1c23,-13.4%
7,CC(=O)N1CCC(Cc2cccc(Nc3ncc(C)s3)n2)CC1,-18.5%
8,Cc1cc(OCC(=O)N2CCCC2c2cccc(Nc3nccs3)n2)c2ccccc2n1 (stereo unspecified),2.35%
9,O=C(Nc1ccc(S(=O)(=O)Nc2ccccn2)cc1)c1cccc(Cl)c1,-0.42%
10,CC(C)C(=O)Nc1cccc(C(=O)Nc2ccc(S(=O)(=O)Nc3ncccn3)cc2)c1,3.52%
11,CCOC(=O)CCC(=O)Nc1ccc(S(=O)(=O)Nc2cc(OC)nc(OC)n2)cc1,2.87%
12,Cc1cnc(Nc2cccc(C3CCN(C(=O)C4C5C=CC(C5)C4C(=O)NCCO)CC3)n2)s1 (stereo unspecified),-24.7%
13,Cc1cc(C)nc(NS(=O)(=O)c2ccc(NC(=O)COc3ccc(Cl)cc3)cc2)n1,1.7%
14,CN1C(=O)c2cccc3c(S(=O)(=O)Nc4ccccn4)ccc1c23,-9.38%
15,Cc1cccc(NS(=O)(=O)c2ccc([N+](=O)[O-])cc2)n1,-2.71%
16,Cc1cnc(Nc2cccc(C3CCCN3C(=O)c3ccccc3)n2)s1 (stereo unspecified),8.59%
17,Cc1cnc(Nc2cccc(C3CN(C(=O)c4nccn4C)CCO3)n2)s1 (stereo unspecified),2.18%
18,CCCc1cnc(Nc2cccc(C3CCN(C(=O)[C@H]4CCCC[C@H]4C(N)=O)CC3)n2)s1,-23.6%
19,Cc1nc(Nc2cccc(C3CCN(C(=O)Cc4ccc(F)cc4)CC3)n2)sc1C,4.31%
20,Cc1ccc(OCC(=O)Nc2ccc(S(=O)(=O)Nc3ncccn3)cc2)c(C)c1,-1.23%
21,CCCc1cnc(Nc2cccc(C3CCN(C(=O)c4n[nH]c5ccc(C)cc45)CC3)n2)s1,4.01%
22,NC(=O)CN1CCCC1c1cccc(Nc2nccs2)n1 (stereo unspecified),-24.6%
23,Cc1cnc(C(=O)N2CCCC2c2cccc(Nc3nc(C)c(C)s3)n2)cn1 (stereo unspecified),4.08%
24,Cc1ccc(C)c(OCC(=O)Nc2ccc(S(=O)(=O)Nc3nc(C)cc(C)n3)cc2)c1,-5.89%

row,SMILES,relative growth in counter assay
1,Cc1cccc(C(=O)Nc2ccc(S(=O)(=O)Nc3ncccn3)cc2)c1,-2.64%
2,CCC(C)C(=O)Nc1ccc(S(=O)(=O)Nc2nccc(C)n2)cc1 (stereo unspecified),-7.22%
3,CC(=O)N1CCC(c2cccc(Nc3nc(C)c(C)s3)n2)CC1,-8.66%
4,Cc1ccnc(NS(=O)(=O)c2ccc(NC(=O)CCc3ccccc3)cc2)n1,-5.18%
5,Cc1cnc(Nc2cc(C3CCN(C(=O)C4CCCCC4)CC3)ccn2)s1,-1.25%
6,Cc1cc(C)nc(NS(=O)(=O)c2ccc(NC(=O)CCl)cc2)n1,23.6%
7,O=C(COc1ccc(F)cc1)N1CCCC1c1cccc(Nc2nccs2)n1 (stereo unspecified),14.9%
8,Cc1cc(NS(=O)(=O)c2ccc(NC(=O)c3ccccc3)cc2)nc(C)n1,0.4%
9,COc1ccc(CCC(=O)N2CCOC(c3cccc(Nc4ncc(C)s4)n3)C2)cc1 (stereo unspecified),9.66%
10,COc1ccc(NC(=O)CN2CCC(c3cccc(Nc4ncc(C)s4)n3)CC2)cc1,-18.6%
11,COc1ccc(Cl)c2c1[nH]c1nc(SCC(=O)Nc3ccc(Cl)cc3)nnc12,-1.12%
12,CC(C)(C)C(=O)N1CCC(Cc2ccc(Nc3ncc(-c4ccc(F)cc4)s3)nc2)C1 (stereo unspecified),1.54%
13,Cc1csc(Nc2cccc(C3CCN(C(=O)CCn4ncc5ccccc54)CC3)n2)n1,3.86%
14,O=C1CCC(N2C(=O)c3cc(F)c(N4CCN(CCC5CCNCC5)CC4)cc3C2=O)C(=O)N1 (stereo unspecified),1.21%
15,Cc1cnc(Nc2cccc(C(C(=O)N(C)C)C3CCN(C(=O)[C@H](CC(C)C)NC(=O)OC(C)(C)C)CC3)n2)s1 (stereo partly specified),-2.11%
16,CCC(CC)C(=O)Nc1ccc(S(=O)(=O)Nc2nccc(C)n2)cc1,5.84%
17,CC(=O)N1CCCCC1c1csc(Nc2ccccn2)n1 (stereo unspecified),-1.54%
18,COc1ccc(Cl)cc1C(=O)Nc1ccc(S(=O)(=O)Nc2nccc(C)n2)cc1,-3.09%
19,COc1cc(NS(=O)(=O)c2ccc(NC(=S)NC(=O)/C=C/c3ccc(F)cc3)cc2)nc(OC)n1,-21.1%
20,O=C(CSc1nc2cc(Cl)ccc2[nH]1)Nc1ncccn1,2.92%
21,Cc1ccc2[nH]c3nc(SCC(=O)Nc4cccc(Cl)c4C)nnc3c2c1,1.69%
22,COC(C)(C)C(=O)N1CCOC(c2cccc(Nc3ncc(C)s3)n2)C1 (stereo unspecified),-13%
23,O=C1CCC(N2C(=O)c3ccc(NCCCn4cc(C(=O)O)cn4)cc3C2=O)C(=O)N1 (stereo unspecified),-4%
24,Cc1cnc(C(=O)N2CCC(c3cccc(Nc4nccs4)n3)CC2)cn1,3.86%
